From patent US20180312496A1, “BICYCLIC HETEROCYCLE DERIVATIVES AS BROMODOMAIN INHIBITORS” (ORION CORPORATION, priority 2015, published 2018)
Some of these results come from one statement about several compounds together.

molecular target: T1, Bet BRD4 bromodomain (Homo sapiens, UniProt O60885); experiment: Bet bromodomain TR-FRET assay; type: binding; settings: displacement of 300 nM acetyl histone peptide substrate from Bet BRD4 bromodomain protein
T1 construct: fused on or other part: An unnamed tag, implied by the XL-665 labelled antibody used for detection

**Q.** COc1cc2c(cc1-c1c(C)noc1C)cc(-c1ccc3ccccc3c1)c(=O)n2Cc1ccccn1 [Compound 3, 6-(3,5-Dimethylisoxazol-4-yl)-7-methoxy-3-(naphthalen-2-yl)-1-(pyridin-2-ylmethyl)quinolin-2(1H)-one] was tested. Which IC50 did it give?
**A.** The IC50 was 1000 to 10000 nM.

**Q.** With COc1ccc(NC(=O)c2cc3cc(-c4c(C)noc4C)c(OC)cc3n(Cc3ccccn3)c2=O)cc1 [Compound 35, 6-(3,5-Dimethylisoxazol-4-yl)-7-methoxy-N-(4-methoxyphenyl)-2-oxo-1-(pyridin-2-ylmethyl)-1,2-dihydroquinoline-3-carboxamide] as the molecule, how does the IC50 read?
**A.** Its IC50 is 1000 to 10000 nM.

**Q.** Which IC50 does the source give for COc1cc2c(cc1-c1c(C)noc1C)cc(Cc1nnn[nH]1)c(=O)n2Cc1ccccn1 [Compound 100, 3-((1H-tetrazol-5-yl)methyl)-6-(3,5-dimethylisoxazol-4-yl)-7-methoxy-1-(pyridin-2-ylmethyl)quinolin-2(1H)-one] here?
**A.** Its IC50 is under 600 nM.

**Q.** Which IC50 does the source give for COc1cc2c(cc1-c1c(C)noc1C)cc(C(=O)Nc1cc(C)nc(C)c1)c(=O)n2Cc1ccccn1 [Compound 60, 6-(3,5-Dimethylisoxazol-4-yl)-N-(2,6-dimethylpyridin-4-yl)-7-methoxy-2-oxo-1-(pyridin-2-ylmethyl)-1,2-dihydroquinoline-3-carboxamide] here?
**A.** Its IC50 is under 600 nM.

**Q.** CCc1noc(-c2cc3cc(-c4c(C)noc4C)c(OC)cc3n(Cc3ccccn3)c2=O)n1 [Compound 75, 6-(3,5-Dimethylisoxazol-4-yl)-3-(3-ethyl-1,2,4-oxadiazol-5-yl)-7-methoxy-1-(pyridin-2-ylmethyl)quinolin-2(1H)-one] was tested. Which IC50 did it give?
**A.** The IC50 was under 600 nM.

**Q.** With COc1cc2c(cc1-c1c(C)noc1C)cc(C(=O)Nc1cnc(N)c(C)c1)c(=O)n2Cc1ccccn1 [Compound 106, N-(6-Amino-5-methylpyridin-3-yl)-6-(3,5-dimethylisoxazol-4-yl)-7-methoxy-2-oxo-1-(pyridin-2-ylmethyl)-1,2-dihydroquinoline-3-carboxamide] as the molecule, how does the IC50 read?
**A.** The IC50 was under 600 nM.

**Q.** Which IC50 does the source give for COc1cc2c(cc1-c1c(C)noc1C)cc(C(=O)Nc1cc(C)nc(C)c1)c(=O)n2Cc1ccc(F)cc1F [Compound 64, 1-(2,4-Difluorobenzyl)-6-(3,5-dimethylisoxazol-4-yl)-N-(2,6-dimethylpyridin-4-yl)-7-methoxy-2-oxo-1,2-dihydroquinoline-3-carboxamide] here?
**A.** The IC50 was under 600 nM.

**Q.** How did the IC50 turn out when COc1cc2c(cc1-c1c(C)noc1C)cc(-c1ccc(O)cc1)c(=O)n2Cc1ccccn1 [Compound 7, 6-(3,5-Dimethylisoxazol-4-yl)-3-(4-hydroxyphenyl)-7-methoxy-1-(pyridin-2-ylmethyl)quinolin-2(1H)-one] was run?
**A.** The IC50 was under 600 nM.

**Q.** With COc1cc2c(cc1-c1c(C)noc1C)cc(CC(N)=O)c(=O)n2Cc1ccccn1 [Compound 58, 2-(6-(3,5-Dimethylisoxazol-4-yl)-7-methoxy-2-oxo-1-(pyridin-2-ylmethyl)-1,2-dihydroquinolin-3-yl)acetamide] as the molecule, how does the IC50 read?
**A.** Its IC50 is under 600 nM.

**Q.** Which IC50 does the source give for COc1cc2c(cc1-c1c(C)noc1C)cc(C(C)(C)C(=O)O)c(=O)n2Cc1ccccn1 [Compound 101, 2-(6-(3,5-Dimethylisoxazol-4-yl)-7-methoxy-2-oxo-1-(pyridin-2-ylmethyl)-1,2-dihydroquinolin-3-yl)-2-methylpropanoic acid] here?
**A.** Its IC50 is 1000 to 10000 nM.

**Q.** For CCOC(c1cc2cc(-c3c(C)noc3C)c(OC)cc2n(Cc2ccccn2)c1=O)C(F)(F)F (stereo not shown) [Compound 73, 6-(3,5-Dimethylisoxazol-4-yl)-3-(1-ethoxy-2,2,2-trifluoroethyl)-7-methoxy-1-(pyridin-2-ylmethyl)quinolin-2(1H)-one], which IC50 is on record?
**A.** The IC50 was under 600 nM.

**Q.** How did the IC50 turn out when COc1cc2c(cc1-c1c(C)noc1C)cc(C(=O)N1CCc3cc(O)ccc31)c(=O)n2Cc1ccccn1 [Compound 46, 6-(3,5-Dimethylisoxazol-4-yl)-3-(5-hydroxyindoline-1-carbonyl)-7-methoxy-1-(pyridin-2-ylmethyl)quinolin-2(1H)-one] was run?
**A.** Its IC50 is under 600 nM.

**Q.** COc1cc2c(cc1-c1c(C)noc1C)cc(C(=O)Nc1cc(C)c(O)c(C)c1)c(=O)n2Cc1ccccn1 [Compound 55, 6-(3,5-Dimethylisoxazol-4-yl)-N-(4-hydroxy-3,5-dimethylphenyl)-7-methoxy-2-oxo-1-(pyridin-2-ylmethyl)-1,2-dihydroquinoline-3-carboxamide] was tested. Which IC50 did it give?
**A.** The IC50 was under 600 nM.

**Q.** With COc1cc2c(cc1-c1c(C)noc1C)cc(C(N1CCOCC1)C(F)(F)F)c(=O)n2Cc1ccccn1 (stereo not shown) [Compound 70, 6-(3,5-Dimethylisoxazol-4-yl)-7-methoxy-1-(pyridin-2-ylmethyl)-3-(2,2,2-trifluoro-1-morpholinoethyl)quinolin-2(1H)-one] as the molecule, how does the IC50 read?
**A.** Its IC50 is under 600 nM.

**Q.** With COc1cc2c(cc1-c1c(C)noc1C)cc(-c1ccc(N)nc1)c(=O)n2Cc1ccccn1 [Compound 105, 3-(6-Aminopyridin-3-yl)-6-(3,5-dimethylisoxazol-4-yl)-7-methoxy-1-(pyridin-2-ylmethyl)quinolin-2(1H)-one] as the molecule, how does the IC50 read?
**A.** Its IC50 is under 600 nM.

**Q.** Which IC50 does the source give for COc1cc2c(cc1-c1c(C)noc1C)cc(C(=O)N1CCC1)c(=O)n2CC(=O)c1ccc(Cl)cc1 [Compound 103, 3-(azetidine-1-carbonyl)-1-(2-(4-chlorophenyl)-2-oxoethyl)-6-(3,5-dimethyl-isoxazol-4-yl)-7-methoxyquinolin-2(1H)-one] here?
**A.** The IC50 was 1000 to 10000 nM.

**Q.** With COc1cc2c(cc1-c1c(C)noc1C)cc(C(=O)NC1CCN(C)CC1)c(=O)n2Cc1ccccn1 [Compound 47, 6-(3,5-Dimethylisoxazol-4-yl)-7-methoxy-N-(1-methylpiperidin-4-yl)-2-oxo-1-(pyridin-2-ylmethyl)-1,2-dihydroquinoline-3-carboxamide] as the molecule, how does the IC50 read?
**A.** The IC50 was 600 to 1000 nM.

**Q.** Which IC50 does the source give for COc1cc2c(cc1-c1c(C)noc1C)cc(C(=O)Nc1cc(C)c(N)c(C)c1)c(=O)n2Cc1ccccn1 [Compound 113, N-(4-amino-3,5-dimethylphenyl)-6-(3,5-dimethylisoxazol-4-yl)-7-methoxy-2-oxo-1-(pyridin-2-ylmethyl)-1,2-dihydroquinoline-3-carboxamide] here?
**A.** Its IC50 is under 600 nM.

**Q.** How did the IC50 turn out when COc1cc2c(cc1-c1c(C)noc1C)cc(C(=O)N1CCC1)c(=O)n2Cc1ccccn1 [Compound 37, 3-(Azetidine-1-carbonyl)-6-(3,5-dimethylisoxazol-4-yl)-7-methoxy-1-(pyridin-2-ylmethyl)quinolin-2(1H)-one] was run?
**A.** Its IC50 is under 600 nM.

**Q.** How did the IC50 turn out when COc1cc2c(cc1-c1c(C)noc1C)cc(C(=O)Nc1ccccn1)c(=O)n2Cc1ccccn1 [Compound 41, 6-(3,5-Dimethylisoxazol-4-yl)-7-methoxy-2-oxo-N-(pyridin-2-yl)-1-(pyridin-2-ylmethyl)-1,2-dihydroquinoline-3-carboxamide] was run?
**A.** The IC50 was under 600 nM.

**Q.** COc1cc2c(cc1-c1c(C)noc1C)cc(C(=O)N1CCC1)c(=O)n2Cc1ncccc1OC [Compound 109, 3-(Azetidine-1-carbonyl)-6-(3,5-dimethylisoxazol-4-yl)-7-methoxy-1-((3-methoxypyridin-2-yl)methyl)quinolin-2(1H)-one] was tested. Which IC50 did it give?
**A.** The IC50 was 1000 to 10000 nM.

**Q.** How did the IC50 turn out when COc1cc2c(cc1-c1c(C)noc1C)cc(N1CCNC1=O)c(=O)n2CCc1ccc(Cl)cc1 [Compound 24, 1-(4-Chlorophenethyl)-6-(3,5-dimethylisoxazol-4-yl)-7-methoxy-3-(2-oxo-imidazolidin-1-yl)quinolin-2(1H)-one] was run?
**A.** The IC50 was under 600 nM.

**Q.** With COc1cc2c(cc1-c1c(C)noc1C)cc(C(=O)Nc1cc(C)c(=O)n(C)c1)c(=O)n2Cc1ccccn1 [Compound 114, N-(1,5-dimethyl-6-oxo-1,6-dihydropyridin-3-yl)-6-(3,5-dimethylisoxazol-4-yl)-7-methoxy-2-oxo-1-(pyridin-2-ylmethyl)-1,2-dihydroquinoline-3-carboxamide] as the molecule, how does the IC50 read?
**A.** The IC50 was under 600 nM.

**Q.** With COc1cc2c(cc1-c1c(C)noc1C)cc(C(=O)Nc1cnc(N)c(C)c1)c(=O)n2Cc1ncccc1OC [Compound 112, N-(6-amino-5-methylpyridin-3-yl)-6-(3,5-dimethylisoxazol-4-yl)-7-methoxy-1-((3-methoxypyridin-2-yl)methyl)-2-oxo-1,2-dihydroquinoline-3-carboxamide] as the molecule, how does the IC50 read?
**A.** Its IC50 is 1000 to 10000 nM.

**Q.** How did the IC50 turn out when COc1cc2c(cc1-c1c(C)noc1C)cc(CN1CCc3cc(O)ccc31)c(=O)n2Cc1ccccn1 [Compound 99, 6-(3,5-Dimethylisoxazol-4-yl)-3-((5-hydroxyindolin-1-yl)methyl)-7-methoxy-1-(pyridin-2-ylmethyl)quinolin-2(1H)-one] was run?
**A.** Its IC50 is under 600 nM.

**Q.** COc1cc2c(cc1-c1c(C)noc1C)cc(C(=O)N1CCC1)c(=O)n2CCC1CCCCC1 [Compound 94, 3-(Azetidine-1-carbonyl)-1-(2-cyclohexylethyl)-6-(3,5-dimethylisoxazol-4-yl)-7-methoxyquinolin-2(1H)-one] was tested. Which IC50 did it give?
**A.** Its IC50 is 600 to 1000 nM.

**Q.** Which IC50 does the source give for COc1cc2c(cc1-c1c(C)noc1C)cc(C(=O)Nc1nnc(C(F)(F)F)s1)c(=O)n2Cc1ccccn1 [Compound 32, 6-(3,5-Dimethylisoxazol-4-yl)-7-methoxy-2-oxo-1-(pyridin-2-ylmethyl)-N-(5-(trifluoromethyl)-1,3,4-thiadiazol-2-yl)-1,2-dihydroquinoline-3-carboxamide] here?
**A.** Its IC50 is 1000 to 10000 nM.

**Q.** How did the IC50 turn out when COc1cc2c(cc1-c1c(C)noc1C)cc(C(C)(C)C(=O)O)c(=O)n2CCc1ccc(Cl)cc1 [Compound 102, 2-(1-(4-Chlorophenethyl)-6-(3,5-dimethylisoxazol-4-yl)-7-methoxy-2-oxo-1,2-dihydroquinolin-3-yl)-2-methylpropanoic acid] was run?
**A.** Its IC50 is under 600 nM.

**Q.** How did the IC50 turn out when COc1cc2c(cc1-c1c(C)noc1C)cc(-c1cnn(C)c1)c(=O)n2CCc1ccc(Cl)cc1 [Compound 14, 1-(4-Chlorophenethyl)-6-(3,5-dimethylisoxazol-4-yl)-7-methoxy-3-(1-methyl-1H-pyrazol-4-yl)quinolin-2(1H)-one] was run?
**A.** Its IC50 is 1000 to 10000 nM.

**Q.** For COc1cc2c(cc1-c1c(C)noc1C)cc(C(=O)Nc1ccc(N)nc1)c(=O)n2Cc1ccccn1 [Compound 63, N-(6-aminopyridin-3-yl)-6-(3,5-dimethylisoxazol-4-yl)-7-methoxy-2-oxo-1-(pyridin-2-ylmethyl)-1,2-dihydroquinoline-3-carboxamide], which IC50 is on record?
**A.** Its IC50 is under 600 nM.

**Q.** How did the IC50 turn out when COc1cc2c(cc1-c1c(C)noc1C)cc(S(=O)(=O)Nc1ccccn1)c(=O)n2Cc1ccccn1 [Compound 82, 6-(3,5-Dimethylisoxazol-4-yl)-7-methoxy-2-oxo-N-(pyridin-2-yl)-1-(pyridin-2-ylmethyl)-1,2-dihydroquinoline-3-sulfonamide] was run?
**A.** The IC50 was 600 to 1000 nM.
